# Measurements taken from the supplement of paper PMC8728848.
# The other results are listed elsewhere or left out.
# B1: TREM-2 (Mus musculus), Q99NH8 (protein)
# chain: MGPLHQFLLLLITALSQALNTTVLQGMAGQSLRVSCTYDALKHWGRRKAWCRQLGEEGPCQRVVSTHGVWLLAFLKKRNGSTVIADDTLAGTVTITLKNLQAGDAGLYQCQSLRGREAEVLQKVLVEVLEDPLDDQDAGDLWVPEESSSFEGAQVEHSTSRNQETSFPPTSILLLLACVLLSKFLAASILWAVARGRQKPGTPVVRGLDCGQDAGHQLQILTGPGGT
# How the values were obtained:
# Experiment in all cases: glycan array binding signal (z-score within array); higher = stronger binding
# Details in all cases: glycan notation: IUPAC condensed, linker removed
# [1] = biological target: Gal(b1-4)GlcNAc(b1-3)GalNAc
# Outline: (§1)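 Glycan array data came from 3228 arrays in the Consortium for Functional Glycomics database, and only arrays with an available protein sequence were kept. Glycan names were put into IUPAC-condensed notation, and columns mapping to the same glycan were averaged. The binding signal is a within-array Z-score, averaged across arrays of one protein sequence run at different concentrations or buffers and across linkers. A negative Z-score can be read as non-binding.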
# [2] = biological target: Gal(b1-4)GlcNAc(b1-3)[Gal(b1-4)GlcNAc(b1-6)]GalNAc
# Outline: as §1
# [3] = biological target: Gal(b1-4)GlcNAc(b1-6)Gal(b1-4)GlcNAc(b1-6)GalNAc
# Outline: as §1
# [4] = biological target: Gal(b1-4)GlcNAc(b1-6)GalNAc
# Outline: as §1
# [5] = biological target: Gal(b1-4)GlcNAc(b1-6)[Gal(b1-3)]GalNAc
# Outline: as §1
# [6] = biological target: Gal3S(b1-3)GalNAc
# Outline: as §1
# [7] = biological target: Gal3S(b1-3)GlcNAc
# Outline: as §1
# [8] = biological target: Gal3S(b1-3)[Fuc(a1-4)]GlcNAc
# Outline: as §1
# [9] = biological target: Gal3S(b1-4)Glc
# Outline: as §1
# [10] = biological target: Gal3S(b1-4)Glc6S
# Outline: as §1
# [11] = biological target: Gal3S(b1-4)GlcNAc
# Outline: as §1
# [12] = biological target: Gal3S(b1-4)GlcNAc6S
# Outline: as §1
# [13] = biological target: Gal3S6S(b1-4)GlcNAc
# Outline: as §1
# [14] = biological target: Gal3S6S(b1-4)GlcNAc6S
# Outline: as §1
# [15] = biological target: Gal4S(b1-4)GlcNAc
# Outline: as §1
# [16] = biological target: Gal4S6S(b1-4)GlcNAc
# Outline: as §1
# [17] = biological target: Gal6S(b1-4)Glc
# Outline: as §1
# [18] = biological target: Gal6S(b1-4)Glc6S
# Outline: as §1
# [19] = biological target: Gal6S(b1-4)GlcNAc
# Outline: as §1
# [20] = biological target: GalNAc(a1-3)Gal
# Outline: as §1
# [21] = biological target: GalNAc(a1-3)GalNAc
# Outline: as §1
# [22] = biological target: GalNAc(b1-3)Gal(a1-4)Gal(b1-4)GlcNAc
# Outline: as §1
# [23] = biological target: GalNAc(b1-3)GalNAc
# Outline: as §1
# [24] = biological target: GalNAc(b1-4)GlcNAc
# Outline: as §1
# [25] = biological target: Glc(a1-4)Glc
# Outline: as §1
# [26] = biological target: Glc(a1-6)Glc(a1-6)Glc
# Outline: as §1
# [27] = biological target: Glc(b1-4)Glc
# Outline: as §1
# [28] = biological target: Glc(b1-6)Glc
# Outline: as §1
# [29] = biological target: GlcA(b1-3)Gal
# Outline: as §1
# [30] = biological target: GlcA(b1-6)Gal
# Outline: as §1
# [31] = biological target: GlcNAc(a1-3)Gal(b1-4)GlcNAc
# Outline: as §1
# [32] = biological target: GlcNAc(a1-6)Gal(b1-4)GlcNAc
# Outline: as §1
# [33] = biological target: GlcNAc(b1-2)Gal(b1-3)GalNAc
# Outline: as §1
# [34] = biological target: GlcNAc(b1-2)Man(a1-3)[GlcNAc(b1-2)Man(a1-6)]Man(b1-4)GlcNAc(b1-4)GlcNAc
# Outline: as §1
# [35] = biological target: GlcNAc(b1-3)Gal
# Outline: as §1
# [36] = biological target: GlcNAc(b1-3)Gal(b1-3)GalNAc
# Outline: as §1
# [37] = biological target: GlcNAc(b1-3)Gal(b1-4)Glc
# Outline: as §1
binder,measurement,setting,value
B1,glycan array binding signal (z-score),[1],-0.383
same,glycan array binding signal (z-score),[2],-0.331
same,glycan array binding signal (z-score),[3],0.145
same,glycan array binding signal (z-score),[4],-0.412
same,glycan array binding signal (z-score),[5],-0.354
same,glycan array binding signal (z-score),[6],-0.148
same,glycan array binding signal (z-score),[7],-0.121
same,glycan array binding signal (z-score),[8],-0.135
same,glycan array binding signal (z-score),[9],-0.053
same,glycan array binding signal (z-score),[10],4.24
same,glycan array binding signal (z-score),[11],-0.209
same,glycan array binding signal (z-score),[12],4.02
same,glycan array binding signal (z-score),[13],4.4
same,glycan array binding signal (z-score),[14],4.74
same,glycan array binding signal (z-score),[15],-0.111
same,glycan array binding signal (z-score),[16],2.97
same,glycan array binding signal (z-score),[17],0.126
same,glycan array binding signal (z-score),[18],3.17
same,glycan array binding signal (z-score),[19],0.153
same,glycan array binding signal (z-score),[20],-0.436
same,glycan array binding signal (z-score),[21],-0.483
same,glycan array binding signal (z-score),[22],-0.372
same,glycan array binding signal (z-score),[23],-0.372
same,glycan array binding signal (z-score),[24],-0.434
same,glycan array binding signal (z-score),[25],-0.318
same,glycan array binding signal (z-score),[26],-0.335
same,glycan array binding signal (z-score),[27],-0.093
same,glycan array binding signal (z-score),[28],0.039
same,glycan array binding signal (z-score),[29],-0.086
same,glycan array binding signal (z-score),[30],-0.047
same,glycan array binding signal (z-score),[31],-0.426
same,glycan array binding signal (z-score),[32],-0.352
same,glycan array binding signal (z-score),[33],-0.412
same,glycan array binding signal (z-score),[34],-0.206
same,glycan array binding signal (z-score),[35],0.278
same,glycan array binding signal (z-score),[36],-0.421
same,glycan array binding signal (z-score),[37],-0.39
